Experimental data from the supplement of paper PMC4604168 (melanoma cell lines).
Some of the results follow. Most values come without repeats; read them as rough.

Key:
Test in all cases: cell count relative to DMSO control; melanoma cells; higher = more viable cells
Details in all cases: library dose: low library concentration; 72 h
WM115 = test system: WM115
WM1716 = test system: WM1716
WM1745 = test system: WM1745
WM3526 = test system: WM3526
WM3619 = test system: WM3619
WM451Lu = test system: WM451Lu
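Further: cell number obtained by counting DAPI-stained nuclei in high-throughput microscope images with image analysis software, screen run in 1,536-well plates.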

SMILES | cell count (WM115) [%] | cell count (WM1716) [%] | cell count (WM1745) [%] | cell count (WM3526) [%] | cell count (WM3619) [%] | cell count (WM451Lu) [%]
Cn1c(Nc2ccc(C(F)(F)F)cc2)nc2cc(Oc3ccnc(-c4ncc(C(F)(F)F)[nH]4)c3)ccc21 + Oc1nc(-c2ccc(C(F)(F)F)cc2)nc2c1CSCC2 [XAV939] (first compound 0.08 µM, partner dose 2 µM) | 46.8 | 43.7 | 52.7 | 46.6 | 71.4 | 102
COCC[n+]1c2c(n(Cc3cnccn3)c1C)C(=O)c1ccccc1C2=O + CN(C)S(=O)(=O)c1ccc2c(c1)/C(=C/c1cc3c([nH]1)CCCC3)C(=O)N2 [SU6656] (first compound 0.0004 µM, partner dose 0.4 µM) | 87.3 | 89.9 | 92.5 | 108 | 97.8 | 67.4
OCc1c[nH]c2ccccc12 [Indole-3-carbinol] + Cc1cc([N+](=O)[O-])ccc1NS(=O)(=O)c1cc(Cl)ccc1Cl [FH535] (first compound 0.8 µM, partner dose 1 µM) | 89.1 | 98.7 | 116 | 99.8 | 100 | 95.2
OCc1c[nH]c2ccccc12 [Indole-3-carbinol] + Cc1cc(N2CCOCC2)cc2[nH]c(-c3c(NC[C@@H](O)c4cccc(Cl)c4)cc[nH]c3=O)nc12 [BMS536924] (first compound 0.8 µM, partner dose 0.2 µM) | 102 | 120 | 93.7 | 75.4 | 171 | 98.8
Nc1cccc2c1CN(C1CCC(=O)NC1=O)C2=O (centres undefined) [lenalidomide] + CC(C)CCN1c2nc(Nc3cc(F)c(O)c(F)c3)ncc2N(C)C(=O)C1C [BID1870] (first compound 1 µM, partner dose 0.2 µM) | 99.1 | 100 | 105 | 78.4 | 116 | 103
Clc1ccc(Nc2nnc(Cc3ccncc3)c3ccccc23)cc1 [vatalanib] + COC(=O)c1sccc1S(=O)(=O)Nc1ccc(Nc2ccccc2)cc1OC [GSK0660] (first compound 2 µM, partner dose 1 µM) | 91.6 | 114 | 107 | 106 | 84.8 | 82.7
Cn1c(Nc2ccc(C(F)(F)F)cc2)nc2cc(Oc3ccnc(-c4ncc(C(F)(F)F)[nH]4)c3)ccc21 + Oc1cc(-c2nc(-c3ccccc3)[nH]c2-c2ccncc2)ccc1Cl [L779450] (first compound 0.08 µM, partner dose 0.2 µM) | 49.9 | 73.3 | 49.7 | 41.8 | 64.2 | 102
Clc1ccc(Nc2nnc(Cc3ccncc3)c3ccccc23)cc1 [vatalanib] + O=C(Nc1cccc(Cl)c1)Nc1ncc(CCNc2ncnc3ccsc23)s1 [SNS314] (first compound 2 µM, partner dose 0.0008 µM) | 90.3 | 97.4 | 80.7 | 84.4 | 77.2 | 102
Cn1c(Nc2ccc(C(F)(F)F)cc2)nc2cc(Oc3ccnc(-c4ncc(C(F)(F)F)[nH]4)c3)ccc21 + CO[C@@H]1[C@H](N(C)C(=O)c2ccccc2)C[C@H]2O[C@]1(C)n1c3ccccc3c3c4c(c5c6ccccc6n2c5c31)C(=O)NC4 [Midostaurin] (first compound 0.08 µM, partner dose 0.08 µM) | 42.1 | 49.9 | 43.7 | 49.6 | 78.7 | 87.1
Cn1c(Nc2ccc(C(F)(F)F)cc2)nc2cc(Oc3ccnc(-c4ncc(C(F)(F)F)[nH]4)c3)ccc21 + CN(C)S(=O)(=O)c1ccc2c(c1)/C(=C/c1cc3c([nH]1)CCCC3)C(=O)N2 [SU6656] (first compound 0.08 µM, partner dose 0.4 µM) | 29.5 | 75 | 62.8 | 47.1 | 66.4 | 95.7
Nc1cccc2c1CN(C1CCC(=O)NC1=O)C2=O (centres undefined) [lenalidomide] + COc1cc2c(Oc3ccc4[nH]c(C)cc4c3F)ncnc2cc1OCCCN1CCCC1 [cediranib] (first compound 1 µM, partner dose 0.4 µM) | 90.8 | 82.8 | 92 | 85.3 | 107 | 91.6
Clc1ccc(Nc2nnc(Cc3ccncc3)c3ccccc23)cc1 [vatalanib] + Cn1nnc2c(C(N)=O)ncn2c1=O [temozolomide] (first compound 2 µM, partner dose 2 µM) | 95.9 | 98 | 86.2 | 89 | 71.3 | 68
Nc1cccc2c1CN(C1CCC(=O)NC1=O)C2=O (centres undefined) [lenalidomide] + CCc1ccc(CCOc2ccc(CC3SC(=O)NC3=O)cc2)nc1 [pioglitazone] (first compound 1 µM, partner dose 2 µM) | 99.4 | 96.8 | 90.9 | 87.4 | 93.7 | 83.9
O=C(CCCCCCC(=O)Nc1ccccc1)NO [vorinostat] + CC1(C)NC(=O)N(c2ccc([N+](=O)[O-])c(C(F)(F)F)c2)C1=O [nilutamide] (first compound 0.08 µM, partner dose 1 µM) | 106 | 108 | 82 | 93.3 | 124 | 89.2
